# In PubChem BioAssay AID488969 (Vanderbilt High Throughput Screening Facility, 2010):
# The full ranking holds about 110,000 compounds; the median of “z-score” is about -0.1, and the highest 2% start at about 2. This is one part of the list. Active and inactive are the calls of the source.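 Rule for the calls: active = z-score in the third read window above 3 or below -3; inactive = the rest.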
# Molecular target: Metabotropic glutamate receptor 8 (Rattus norvegicus) (UniProt P70579)
# Experiment: rat mGluR8 modulators via GIRK flux, primary screen, cell-based, thallium flux, HTS (AID 488969)
# Settings: HEK293 rat mGluR8, GIRK (G protein-gated inwardly rectifying potassium channel) thallium flux, FluoZin2; at 10 µM; stronger effect = higher value; submaximal glutamate (EC20) added with thallium
# Chain of UniProt P70579 (P70579 whole entry, looked up): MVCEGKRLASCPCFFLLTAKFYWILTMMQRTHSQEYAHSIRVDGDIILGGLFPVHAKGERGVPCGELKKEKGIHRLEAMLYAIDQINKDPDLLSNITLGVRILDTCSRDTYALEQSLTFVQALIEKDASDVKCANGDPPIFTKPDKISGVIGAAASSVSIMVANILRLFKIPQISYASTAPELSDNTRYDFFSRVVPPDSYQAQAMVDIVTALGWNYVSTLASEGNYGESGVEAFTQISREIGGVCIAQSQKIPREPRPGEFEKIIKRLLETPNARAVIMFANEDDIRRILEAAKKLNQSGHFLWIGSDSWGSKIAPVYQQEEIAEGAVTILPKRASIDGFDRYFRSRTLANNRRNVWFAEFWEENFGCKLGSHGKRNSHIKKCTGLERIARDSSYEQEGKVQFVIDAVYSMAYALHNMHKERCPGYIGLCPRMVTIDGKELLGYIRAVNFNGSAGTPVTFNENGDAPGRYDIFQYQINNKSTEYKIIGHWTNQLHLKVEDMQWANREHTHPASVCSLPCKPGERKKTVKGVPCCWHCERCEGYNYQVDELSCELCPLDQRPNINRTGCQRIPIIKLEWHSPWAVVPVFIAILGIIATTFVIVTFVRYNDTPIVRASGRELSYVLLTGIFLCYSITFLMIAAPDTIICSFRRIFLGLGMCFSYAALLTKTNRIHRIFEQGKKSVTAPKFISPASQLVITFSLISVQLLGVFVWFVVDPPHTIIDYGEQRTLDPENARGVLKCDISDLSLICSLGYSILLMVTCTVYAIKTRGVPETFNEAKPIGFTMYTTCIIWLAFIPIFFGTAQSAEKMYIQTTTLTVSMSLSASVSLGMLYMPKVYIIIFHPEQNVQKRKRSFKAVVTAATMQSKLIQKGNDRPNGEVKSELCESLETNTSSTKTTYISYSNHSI
row,Compound,z-score
1,O=C(C1CC1)N1CCc2cc(Br)cc(S(=O)(=O)N3CCOCC3)c21,0.67
2,Cc1nnc(NC(=O)CSc2nnc(CNC(=O)c3ccccc3)n2-c2ccccc2)s1,-0.585
3,CC1C(=O)CCN(C(C)(C)C)C1C (stereo not given),0.2
4,CCN(CC(=O)Nc1ccc(NC(C)=O)cc1)c1ccc(C(F)(F)F)cn1,-0.202
5,COc1cccc(C(=O)N2CCCC(c3nc(-c4cccs4)no3)C2)c1 (stereo not given),-0.0488
6,O=C(c1ccccc1)c1ccc2nc(-c3ccc(NC(=O)c4ccccc4Br)cc3)[nH]c2c1,-0.191
7,OCCNc1nc(SCc2ccccc2)nc2sc3c(c12)CCC3,1.36
8,COc1ccccc1-c1cc(C(F)(F)F)nc(S(C)(=O)=O)n1,0.243
9,O=C(Nc1ccc(Cl)cc1)Nc1ccc(N2CCOCC2)cc1,-0.0978
10,CCN1CCN(CC(=O)n2c3c(c4ccccc42)CC(C)CC3)CC1 (stereo not given),0.702
11,COc1cc(C2C(C(=O)c3ccc(C)o3)=C(O)C(=O)N2Cc2cccnc2)ccc1O (stereo not given),-0.0623
12,O=S(=O)(Nc1nc2ccccc2s1)c1ccc(Br)s1,-0.0496
13,COc1ccc(-c2[nH]ncc2-c2csc(C)n2)c(O)c1,-0.141
14,COc1cccc(OCCCOc2ccc([N+](=O)[O-])cc2Cl)c1,-0.251
15,COc1cccc(/C=N/NC(=O)C(=O)Nc2ccccc2OC(F)(F)C(F)F)c1O,-0.301
16,CC(=O)Oc1c2occc2cc2ccc(=O)oc12,-0.537
17,CCCS(=O)(=O)N1CCC(C(=O)NCCCOCC)CC1,0.176
18,Cc1ccc(-c2nnc(CSc3nnc(COc4ccccc4)n3-c3ccc(C)cc3)o2)cc1,-0.725
19,O=C(c1ccc2c(c1)OCO2)N1CCCC(c2ccccc2)C1 (stereo not given),0.197
20,[O-][n+]1onc2c3ccnnc3ccc21,0.333
21,CN(/C(=N/S(=O)(=O)c1cccs1)c1ccccc1)c1ccccc1,-0.367
22,Cc1nn(-c2ccccc2)c(C)c1C(=O)OCC(=O)NC(=O)NC1CCCC1,-0.63

row,Compound,z-score
1,CC1CCN(S(=O)(=O)c2ccc(NC(=O)Cc3ccccc3)cc2)CC1,-0.0151
2,O=C1c2cccc3cccc(c23)N1Cc1ccc(F)cc1,-0.356
3,Cc1cc(NC(=O)c2nn(C)c(C)c2[N+](=O)[O-])no1,-0.236
4,Cc1ccc(-c2nn(Cc3ccccc3)cc2/C=C/C(=O)O)cc1C,-0.207
5,CCC(=O)Nc1nonc1-c1nc2ccccc2n1Cc1ccccc1,-0.0236
6,COc1cc(NC(=O)C(F)(F)F)cc(OC)c1,0.0614
7,Cc1occc1C(=O)NCc1ccccc1,0.0313
8,CCOC(=O)CSc1nc2cc(C(=O)NCc3ccco3)ccc2c(=O)n1C1CCCCC1,0.724
9,CCOCCCn1c(=N)c(C(N)=S)cc2c(=O)n3cccc(C)c3nc21,2
10,CSc1nc2c(c(=O)[nH]1)C(c1cccs1)C1=C(CCCC1=O)N2 (stereo not given),-0.461
11,CCOC(=O)c1cc(C(C)(C)C)oc1CNC(=O)c1c(C)oc2c1CCCC2,-0.0858
12,CCCS(=O)(=O)N1CCc2cc(OC)c(OC)cc2C1,0.121
13,CS(=O)(=O)c1nc(-c2ccc(Br)cc2)cc(-c2ccccc2)c1C#N,-0.135
14,CCOC(=O)c1cc(CC)sc1NC(=O)C1CC(=O)NN1Cc1ccccc1 (stereo not given),-0.128
15,COc1ccc(C(=O)/C=C2\NCC3c4ccccc4CCN3C2=O)cc1 (stereo not given),0.095
16,COc1ccc(N2CCC(CNC(=O)Nc3cccc(OC)c3)C2)cc1 (stereo not given),-0.265
17,COc1ccc(C(=O)/C=C/Nc2ccc(NC(C)=O)cc2)cc1OC,-0.098
18,Cc1cccc(-c2oc(C)c(C)[n+]2[O-])c1,-0.028
19,Cc1cc(C)c(C)c(OCc2nc(-c3cccnc3)no2)c1,0.00652
20,O=C(CCNS(=O)(=O)c1cccs1)N1CCc2ccccc2C1,1.18
21,N/C(Cc1ccc([N+](=O)[O-])cc1)=N\OC(=O)c1ccccc1Br,0.116
22,CCCC1=NN2C(=N)/C(=C\c3cc(C)n(-c4cc(C)cc(C)c4)c3C)C(=O)N=C2S1,1.45

row,Compound,z-score
1,COc1cccc(-n2c(SCC(=O)OC(C)C)nnc2-c2cccnc2)c1,-0.453
2,Cc1sc(-n2c(C)cc(/C=C3\SC(=S)NC3=O)c2C)c(C#N)c1C,2.26
3,COC1=C(Nc2ccc(O)cc2)C(=O)c2ccccc2C1=O,-0.218
4,CC(C)C(OC(=O)c1ccco1)C(=O)NC1CCCCC1 (stereo not given),-0.259
5,CCCCn1nnc(NC(=O)c2sc3cc(Cl)ccc3c2Cl)n1,-0.463
6,Cc1ccc(N2C(=O)CC(NNC(=O)c3cccc(S(=O)(=O)N4CCCC4)c3)C2=O)cc1 (stereo not given),-0.167
7,CC1CCC/C(=N\NC(=O)Nc2ccccc2)C1 (stereo not given),-0.338
8,CCOC(=O)c1ccccc1NC(=O)CSc1nc2c(c(=O)n(C)c(=O)n2C)n1C,-0.0106
9,CCc1nc2c(C#N)c(-c3ccc(Cl)cc3)ccn2n1,-0.604
10,O=C(NCc1ccccn1)C1C2C=CC(C2)C1C(=O)Nc1ccc(F)cc1 (stereo not given),0.216
11,CN1C(=O)C2(N=c3ccccc3=N2)c2ccccc21,-0.345
12,CCOc1ccc(C(CCc2ccccc2)NC(=O)c2ccccc2)cc1OCC (stereo not given),-0.461
13,CCC(Sc1nc(C)cc(=O)[nH]1)C(=O)Nc1ccc(Cl)cn1 (stereo not given),-0.264
14,CCCS(=O)(=O)N1CCN(C(=O)c2ccco2)CC1,-0.289
15,CCCCC(=O)Nc1cccc(NC(=O)CC)c1,0.0913
16,CCN(CC)S(=O)(=O)c1cccc(C(=O)N2CCCCC2)c1,-0.135
17,Cc1ccc2c(c1)C(O)(c1c(C)[nH]c3ccccc13)C(=O)N2 (stereo not given),1.26
18,CCc1ccc(N2C(=O)CN(Cc3cc(OC)c(OC)c(OC)c3)C2=S)cc1,-0.483
19,COC(=O)c1cn(C(=O)OC)c2ccccc12,0.484
20,CC(CC(=O)Nc1cc([N+](=O)[O-])ccc1Cl)c1ccccc1 (stereo not given),1.42
21,O=c1cc(-c2ccccc2)[nH]c2[nH]n(-c3ccccc3)c(=O)c12,-0.88
22,CCOC(=O)c1cnc2ccc(OCC)cc2c1N1CCN(C)CC1,-0.217

row,Compound,z-score
1,COc1cccc(C(=O)/C=C/Nc2ccc(S(=O)(=O)Nc3ncccn3)cc2)c1,0.149
2,CC(=O)Nc1nc2n(n1)C(c1ccccc1)C=C(c1ccccc1)N2 (stereo not given),0.0737
3,O=C(COC(=O)c1cccs1)NCc1ccccc1,0.109
4,Cc1cccc2cc(CN(CCN3CCOCC3)C(=O)NCc3ccccc3)c(=O)[nH]c12,0.0153
5,COC(=O)c1ccc(NC(=O)C2CCCN2S(=O)(=O)c2ccc(OC)cc2)cc1 (stereo not given),-0.672
6,CCCOc1cccc(-c2nn(-c3ccccc3)cc2/C=C(\C#N)C(=O)NCCCn2ccnc2)c1,-0.485
7,O=C(COc1ccccc1)NCc1nnc(SCC(=O)Nc2nccs2)n1-c1ccccc1,-0.247
8,Cc1ccc(SCC(=O)NCCN2C(=O)CSC2=O)c(C)c1,0.898
9,CCc1nnc(NC(=O)C2CC(=O)N(c3ccc4c(c3)OCCO4)C2)s1 (stereo not given),-0.124
10,CN(c1ccc(OCc2nnc(-c3ccccc3)o2)cc1)S(=O)(=O)c1ccccc1,-0.0803
11,CCOC(=O)c1sc2nc3c(cc2c1N)COC(C)(C)C3,-0.191
12,Cc1ccc(OCC(O)CN2CCN(Cc3ccc4c(c3)OCO4)CC2)c(C)c1 (stereo not given),-1.56
13,CC1(C)CC(=O)C2=C(C1)Nc1cc3c(cc1C2c1ccc2c(c1)OCO2)OCO3 (stereo not given),-0.639
14,O=C(N/N=C/c1ccc(N2CCOCC2)o1)c1cccc(F)c1,-0.000719
15,C=CCNc1oc(-c2cccc3ccccc23)nc1C#N,0.211
16,O=C(c1ccccc1)c1ccc(OC(=O)N2CCOCC2)cc1,-1
17,O=C(Cn1c(=O)oc2cc(S(=O)(=O)N3CCc4ccccc43)ccc21)NC1CCCC1,-0.167
18,O=C(Cn1nc(Cc2cccnc2)c2ccccc2c1=O)NCc1ccc2c(c1)OCO2,-0.0578
19,Cc1cc2c(cc1C)C(=O)NC(C)(C)C2,active: 5.66
20,O=C(/C=C/c1ccc2c(c1)OCO2)c1ccco1,0.02
21,Cc1ccccc1NC1=C(C(=O)c2ccccc2)N(C)S(=O)(=O)c2ccccc21,-0.213
22,Cn1c(=O)[nH]c(=O)c2c1nc(CN1CCN(c3ccccc3F)CC1)n2CCCc1ccccc1,-0.253

row,Compound,z-score
1,O=C(CSc1ccc(-c2nc3ccccc3[nH]2)cn1)Nc1ccc2c(c1)OCCO2,0.323
2,Cc1ccsc1/C=C(\C#N)C(=O)NCc1ccco1,-0.0871
3,CCc1ccc2nc(N3C(=O)c4oc5ccccc5c(=O)c4C3c3ccc(OC)c(OC)c3)sc2c1 (stereo not given),-0.133
4,O=C(c1ccc(F)cc1F)N1CCN(c2ncccn2)CC1,-0.217
5,COc1cccc(C(=O)Nc2ccc3c(c2)C(=O)N(CCC(=O)O)C3=O)c1,-0.148
6,CCNC(=S)NNC(=O)c1cc(-c2ccc(OCC)cc2)nc2ccccc12,0.71
7,Cc1ccc(-c2cc(C(=O)NN=C3CCCC3)c3ccccc3n2)cc1,0.044
8,CCC(C)n1c(-c2cccs2)nc2nc3ccccc3nc21 (stereo not given),-0.664
9,O=C(Nc1ccc(Cl)c(C(F)(F)F)c1)NC1CC2CCCC(C1)N2C1CC1 (stereo not given),0.511
10,Cc1cc(C(C)(C)C)ccc1OCCN1CCCC1,1.41
11,CC(C)C1C(C#N)=C(N)Oc2n[nH]c(-c3ccc4ccccc4c3)c21 (stereo not given),-0.0843
12,Cc1cccc(N2CCN(C(=S)NCc3ccco3)CC2)c1C,-0.157
13,O=C(OCn1nnc2ccccc2c1=O)c1ccc2ncsc2c1,0.149
14,O=C(Nc1cccc(Br)c1)c1cc2ccccc2o1,-0.636
15,COc1ccc2oc(=O)c(-c3ccccc3C(=O)N3CCOCC3)cc2c1,-0.104
16,CCOC(=O)c1c(-c2ccc(C)o2)csc1NC(=O)CN1CCOCC1,-1.17
17,COc1c(F)c(F)c(C(=O)O)c(Nc2ccccc2C)c1F,-0.533
18,COc1ccc(C2NC(=S)NC3=C2CCc2cc(OC)ccc23)cc1 (stereo not given),-0.223
19,O=C(O)c1ccccc1NC(=S)NC(NC(=O)c1ccccc1[N+](=O)[O-])C(Cl)(Cl)Cl (stereo not given),-0.103
20,CCOc1ccc(NC(=O)CN2CCN(CC(=O)Nc3ccc(C(=O)OC)cc3)CC2)cc1,0.201
21,CN(C)CCCOc1ccc(C(C)(C)c2ccccc2)cc1,active: 3.07
22,COc1cccc(CNc2ccc(S(N)(=O)=O)cc2)c1OC,0.00283
